This is one part of the list.

For one test, the system named is HSkMC (human skeletal muscle cells). The experiment in a line: cytotoxicity call (relative viability < 0.9). The conditions noted are these: 10 µM.
For `C[C@H](CO)N1C[C@H](C)[C@H](CN(C)Cc2ccc(C(=O)O)cc2)Oc2ccc(NC(=O)c3ccncc3)cc2CC1=O`, the cytotoxicity call was “inactive”.
For the compound `C[C@@H]1CCCCO[C@@H](CN(C)S(=O)(=O)c2cccs2)[C@@H](C)CN([C@@H](C)CO)C(=O)c2cc(NC(=O)CCC(F)(F)F)ccc2O1`, the cytotoxicity call is “inactive”.
Turning to `C[C@H]1CN([C@@H](C)CO)S(=O)(=O)c2ccc(C#Cc3ccccc3)cc2O[C@@H]1CN(C)S(=O)(=O)c1cn(C)cn1`, the cytotoxicity call was “inactive”.
On to `N#CC1(N[C@@H](Cc2ccccc2)c2ccccc2)CCCCCC1`, for which the cytotoxicity call is “inactive”.
On the same count and under the same terms, with `C[C@H](CO)N1C[C@H](C)[C@H](CN(C)C(=O)Nc2ccc(C(F)(F)F)cc2)Oc2c(NS(=O)(=O)c3ccc(F)cc3)cccc2C1=O` the entry was “inactive”; with `O=C(C[C@H]1CC[C@@H](NC(=O)CN2CCOCC2)[C@H](CO)O1)NCCc1ccccc1`, “inactive”.
For `Cc1c(C)c(C)c(CN)c(C)c1C`, the cytotoxicity call was “inactive”.
The same measure, in the same setting: with `COc1cc2c(cc1OC)[C@]1(Nc3c-2c(-c2ccccc2)nn3-c2ccccc2)C(=O)Nc2ccccc21` the entry was “inactive”.
Consider `C[C@@H]1CN([C@@H](C)CO)S(=O)(=O)c2ccc(-c3cccnc3)cc2O[C@H]1CN(C)C(=O)NC1CCCCC1`, for which the cytotoxicity call is “inactive”.

The test system of the next test is HepG2. The experiment in a line: cytotoxicity call (relative viability < 0.9). The note with it: 10 µM.
For `C[C@H]1CN([C@@H](C)CO)C(=O)c2cc(/C=C/c3ccccc3)cnc2O[C@@H]1CN(C)C(=O)C1CCOCC1`, the cytotoxicity call was “inactive”.
Regarding `C[C@H](CO)N1C[C@H](C)[C@@H](CN(C)Cc2ccc(C(F)(F)F)cc2)Oc2ccc(NC(=O)Nc3ccccc3)cc2C1=O`, the cytotoxicity call was “active”.
With `O=C(CCCCCCC(=O)N/N=C/[C@@H](O)[C@@H](O)[C@H](O)[C@H](O)CO)NO`, the cytotoxicity call is “inactive”.
Still for that read-out and setting: for `CCCN(C)C[C@@H]1OCCCC[C@@H](C)Oc2ccc(NC(=O)Nc3c(C)noc3C)cc2C(=O)N([C@H](C)CO)C[C@@H]1C` the value was “inactive”; for `COc1ccc(NC(=O)N(C)C[C@H]2OCCCC[C@H](C)Oc3ccc(NC(=O)NC4CCCCC4)cc3C(=O)N([C@@H](C)CO)C[C@@H]2C)cc1`, “inactive”.
Same read-out and setting: for `CCCNC(=O)N1[C@@H]2Cn3c(cccc3=O)[C@H]1[C@@H](C(=O)NCC(F)(F)F)[C@@H]2CO` the value was “inactive”; for `C[C@H]1CCCCO[C@@H](CN(C)C(=O)c2ccccc2)[C@@H](C)CN([C@@H](C)CO)C(=O)c2cc(NS(=O)(=O)c3ccc(Cl)cc3)ccc2O1`, “inactive”.
On the same count and under the same terms, with `C[C@@H]1CN([C@H](C)CO)C(=O)c2cccc(NC(=O)C3CCOCC3)c2O[C@@H]1CN(C)Cc1ccccc1` the entry was “inactive”.
For `C[C@@H]1CN([C@H](C)CO)C(=O)c2cc(NC(=O)Nc3ccccc3)ccc2O[C@@H](C)CCCCO[C@@H]1CN(C)C(=O)CCC(F)(F)F`, the cytotoxicity call is “inactive”.
The same measure, in the same setting: for `Cc1noc(C)c1S(=O)(=O)Nc1ccc2c(c1)CC(=O)N([C@@H](C)CO)C[C@@H](C)[C@@H](CN(C)S(=O)(=O)c1ccc(F)cc1)O2` the value was “inactive”.
Still for that read-out and setting: for `C[C@H]1CCCCO[C@@H](CN(C)Cc2ccncc2)[C@@H](C)CN([C@@H](C)CO)C(=O)c2cc(NC(=O)Nc3ccccc3)ccc2O1` the value was “inactive”.
Same read-out and setting: for `O=C(N[C@@H](c1ccccc1)c1ccc2ccccc2n1)C1CCN(Cc2cccc(C(F)(F)F)c2)CC1` the value was “inactive”; for `C[C@@H]1CN([C@H](C)CO)C(=O)c2cccc(NC(=O)Nc3ccccc3)c2O[C@@H]1CN(C)Cc1ccc(Oc2ccccc2)cc1`, “inactive”.
Regarding `C[C@@H](Sc1nc(N)cc(N)n1)C(=O)O`, the cytotoxicity call is “inactive”.
On the same count and under the same terms, with `C[C@H](CO)N1C[C@H](C)[C@H](CN(C)C(=O)C2CCOCC2)Oc2ncc(/C=C/c3ccccc3)cc2C1=O` the entry was “inactive”.
On the same count and under the same terms, with `Cc1ccc(S(=O)(=O)N(C)C[C@H]2Oc3ccc(NS(=O)(=O)c4ccccc4)cc3C(=O)N([C@@H](C)CO)C[C@H]2C)cc1` the entry was “inactive”.
In the case of `CC(C)NC(=O)N(C)C[C@@H]1OCCCC[C@H](C)Oc2ccc(NS(=O)(=O)c3cn(C)cn3)cc2C(=O)N([C@H](C)CO)C[C@@H]1C`, the cytotoxicity call was “inactive”.
Still for that read-out and setting: with `COc1ccc(S(=O)(=O)N(C)C[C@@H]2Oc3ccc(NS(C)(=O)=O)cc3CC(=O)N([C@H](C)CO)C[C@H]2C)cc1` the entry was “inactive”.
Same read-out and setting: for `Cl.c1ccc(C2CN3CCSC3=N2)cc1` (stereo unspecified) the value was “inactive”; for `C[C@H]1CN([C@@H](C)CO)S(=O)(=O)c2ccc(C#CCC3CCCC3)cc2O[C@@H]1CN(C)C(=O)c1cnccn1`, “inactive”; for `COC1=CC(=O)c2ccccc2C1=O`, “inactive”.
On to `C[C@@H]1CN([C@H](C)CO)S(=O)(=O)c2ccc(C#CC3CC3)cc2O[C@H]1CN(C)Cc1cccc(F)c1`, for which the cytotoxicity call was “inactive”.

Values taken from the antibiotic and cytotoxicity screens of Wong et al. (2023).
